Measured values as given in US20170029841A1, “METHODS AND COMPOSITIONS FOR SELECTIVE REGULATION OF PROTEIN EXPRESSION” (priority 2015, published 2017).

System: CP4-EPSPS protein
Settings: R3 plants, tassels harvested at V8 to V12

B1: SEQ ID NO: 1: mts-siRNA target element, 95% identity to nucleotide positions 1429 to 1628 of cDNA SEQ ID NO: 17 (nucleic acid)
DNA: AGACGACGACCGTGCATGGTGATGAATCACAGACGACGAACACGCATGTCGCATCGCCGTCCTCTTTGTATCACACAGCATCACCTTCTTCGCTCTACTACTCCCCCGAGCAATCACCGACCAATAACACCAACCATCAACCTCCCCCGTCGCCGCCGCCTTCACCGTCCTCCCCTCACACCATAGAACTGCAAATGTCCG
CP4-EPSPS fluorescence signal in anther wall, tapetum and developing pollen microspores: low fluorescence signal
